The campaign covered roughly 310,000 compounds. About 2,200 (0.71%) showed an effect of 50% or more. The effect is printed as a negative number. This is one part of the list.

The text below walks through data of PMC4336329 (PLoS ONE, 2015).

The assay deals with human ether-à-go-go-related gene (hERG) potassium channel (human, UniProt Q12809). The experiment in a line: primary screen, population patch clamp on CHO cells stably expressing hERG.
human ether-à-go-go-related gene (hERG) potassium channel, sequence (Q12809 whole entry, looked up): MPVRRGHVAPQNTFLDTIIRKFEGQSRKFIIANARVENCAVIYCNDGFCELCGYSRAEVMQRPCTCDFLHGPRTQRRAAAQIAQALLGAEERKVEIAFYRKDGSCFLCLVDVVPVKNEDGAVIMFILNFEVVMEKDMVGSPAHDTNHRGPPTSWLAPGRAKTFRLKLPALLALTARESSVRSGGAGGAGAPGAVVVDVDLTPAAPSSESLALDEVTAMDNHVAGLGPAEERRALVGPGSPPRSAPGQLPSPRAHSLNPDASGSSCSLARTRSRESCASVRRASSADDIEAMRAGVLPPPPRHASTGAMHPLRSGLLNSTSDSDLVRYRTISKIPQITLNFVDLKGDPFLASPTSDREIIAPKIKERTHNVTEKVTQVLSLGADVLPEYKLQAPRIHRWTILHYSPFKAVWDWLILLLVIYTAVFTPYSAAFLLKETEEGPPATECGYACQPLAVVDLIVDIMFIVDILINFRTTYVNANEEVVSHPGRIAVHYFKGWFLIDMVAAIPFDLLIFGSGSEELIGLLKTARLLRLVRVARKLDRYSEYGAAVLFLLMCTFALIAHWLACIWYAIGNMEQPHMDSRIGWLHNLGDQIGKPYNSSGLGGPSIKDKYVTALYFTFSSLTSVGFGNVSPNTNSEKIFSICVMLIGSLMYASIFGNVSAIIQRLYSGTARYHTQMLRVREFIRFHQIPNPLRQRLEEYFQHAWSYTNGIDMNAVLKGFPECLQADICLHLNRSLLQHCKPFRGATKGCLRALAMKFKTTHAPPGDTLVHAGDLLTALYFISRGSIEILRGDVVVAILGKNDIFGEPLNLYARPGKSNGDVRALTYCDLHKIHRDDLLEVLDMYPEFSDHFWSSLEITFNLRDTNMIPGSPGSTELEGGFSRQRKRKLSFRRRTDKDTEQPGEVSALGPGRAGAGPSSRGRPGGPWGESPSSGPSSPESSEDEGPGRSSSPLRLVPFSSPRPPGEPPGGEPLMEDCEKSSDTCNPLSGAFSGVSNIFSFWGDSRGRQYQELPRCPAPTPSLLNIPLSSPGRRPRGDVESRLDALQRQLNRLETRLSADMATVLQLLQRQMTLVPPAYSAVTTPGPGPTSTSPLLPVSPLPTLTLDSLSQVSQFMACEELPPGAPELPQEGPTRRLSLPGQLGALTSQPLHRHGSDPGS
As to `C[C@@H]1Cc2c(O)c(O)cc(O)c2C(=O)O1`, the “hERG current change (%, negative = inhibition) at 1uM” value is recorded as 15.4%.

Consider `Cl.Cn1c(O)c(C=NCCCN2CCCC2=O)c(=O)n(C)c1=O.O=C(O)C(=O)O`, for which the “hERG current change (%, negative = inhibition) at 1uM” value is reported as 16.9%.

As for `CC(SCc1cn2cc(Cl)ccc2n1)C(=O)O` (stereo not shown), the “hERG current change (%, negative = inhibition) at 1uM” value is 12%.

For `COC(=O)C1=CN(C2CC2)C=C(C(=O)OC)C1c1ccc(C(=O)OC)cc1`, the “hERG current change (%, negative = inhibition) at 1uM” value stood at 20.6%.

Regarding `Cc1ccc(NC(=O)c2cc(S(=O)(=O)N3CCOCC3)cn2C)cc1F`, the “hERG current change (%, negative = inhibition) at 1uM” value was -5.36%.

Consider `CC(=O)OCC1(C)CN(c2ccccc2)N(C(C)=O)C1=O` (stereo not shown), for which the “hERG current change (%, negative = inhibition) at 1uM” value is reported as 1.84%.

Take `CCc1ccc(S(=O)(=O)Nc2c(NC3CCCCC3)c3ccccc3oc2=O)cc1`: the “hERG current change (%, negative = inhibition) at 1uM” value was 8.84%.

Regarding `CCOC(=O)C1CCCN(C(=O)C2CCCN(S(C)(=O)=O)C2)C1` (stereo not shown), the “hERG current change (%, negative = inhibition) at 1uM” value was found to be 5.45%.

In the case of `COc1ccc(N2CC(C(=O)N/N=C/c3c[nH]c4ccccc34)CC2=O)cc1` (stereo not shown), the “hERG current change (%, negative = inhibition) at 1uM” value is on record as 15.1%.

Turning to `COc1cccc(N2CCN(C(C)C(=O)NC34CC5CC(CC(C5)C3)C4)CC2)c1` (stereo not shown), the “hERG current change (%, negative = inhibition) at 1uM” value is given as -2.17%.

With `CC1CN(C(=O)COC(=O)CSc2ccc(C(N)=O)cc2[N+](=O)[O-])CC(C)O1` (stereo not shown), the “hERG current change (%, negative = inhibition) at 1uM” value came out at 4.42%.

For `O=C1Cn2c(nc3ccccc32)N1c1ccccc1F`, the “hERG current change (%, negative = inhibition) at 1uM” value stood at 6.38%.

In the case of `C=CCN1C(=S)CC(c2ccccc2)=Nc2ccccc21`, the “hERG current change (%, negative = inhibition) at 1uM” value is 17.4%.

`CCc1ccc(C(=O)CSc2n[nH]c(-c3ccncc3)n2)cc1`: the “hERG current change (%, negative = inhibition) at 1uM” value is recorded as 12.9%.

For `COC(=O)CC1(C(=O)OC)Oc2ccc(Br)cc2C(=O)N1c1cc(Cl)c(Cl)cc1Cl` (stereo not shown), the “hERG current change (%, negative = inhibition) at 1uM” value is on record as 13.9%.

Turning to `CC1C(=O)N2CCCc3cc(NS(C)(=O)=O)cc1c32` (stereo not shown), the “hERG current change (%, negative = inhibition) at 1uM” value was determined as 7.05%.

`CN(C(=O)COC(=O)c1sc2ccccc2c1Cl)C1CCCCC1`: the “hERG current change (%, negative = inhibition) at 1uM” value was determined as 5.21%.

As to `CC1CCN(c2ccc3nnc(CCC(=O)Nc4ccc(F)cc4)n3n2)CC1`, the “hERG current change (%, negative = inhibition) at 1uM” value is on record as -1.45%.

Regarding `CCCC(CCC)C(=O)Nc1cccc(C(=O)O)c1`, the “hERG current change (%, negative = inhibition) at 1uM” value was -11.2%.

For `COc1ccc(C(=O)c2oc3ccccc3c2NC(C)=O)cc1`, the “hERG current change (%, negative = inhibition) at 1uM” value stood at 5.32%.

Take `Cn1cc(Cl)c(-c2n[nH]c(=S)n2-c2ccc(F)cc2)n1`: the “hERG current change (%, negative = inhibition) at 1uM” value is given as 11.4%.

Turning to `COc1ccc(C(=O)c2cnc3cc4c(cc3c2C)OCO4)cc1`, the “hERG current change (%, negative = inhibition) at 1uM” value stood at 0.557%.

In the case of `COc1ccccc1NC(=O)CN(c1ccccc1OC)S(=O)(=O)c1ccccc1`, the “hERG current change (%, negative = inhibition) at 1uM” value worked out at 8.75%.

Take `COc1cc(CN2CCNC(=O)C2CC(=O)N(C)CCC2CCOCC2)cc(OC)c1` (stereo not shown): the “hERG current change (%, negative = inhibition) at 1uM” value was 15.8%.

`Cc1nc(SCC(=O)c2ccc(F)cc2)c([N+](=O)[O-])[nH]1`: the “hERG current change (%, negative = inhibition) at 1uM” value is given as 24.5%.

Turning to `COC(=O)c1[nH]c2cc(OC)ccc2c1N`, the “hERG current change (%, negative = inhibition) at 1uM” value is 12.9%.

`O=C(c1cc(-c2ccccc2)nc2ccccc12)N1N=C(C(F)F)CC1(O)C(F)F` (stereo not shown): the “hERG current change (%, negative = inhibition) at 1uM” value is -3.87%.

Turning to `CN1C(=O)CSc2ccc(C(=O)O)cc21`, the “hERG current change (%, negative = inhibition) at 1uM” value is listed as 2.74%.

With `CCN(CC(=O)Nc1ccccc1OC)C(=O)CSCc1ccc(C)cc1`, the “hERG current change (%, negative = inhibition) at 1uM” value is on record as 12.4%.

In the case of `O=[N+]([O-])c1cc(S(=O)(=O)N2CCCCC2)ccc1NCCN1CCOCC1`, the “hERG current change (%, negative = inhibition) at 1uM” value is 8.79%.

Consider `COc1ccccc1-c1nc(S(=O)(=O)c2ccccc2)c(N2CCCCC2)o1`, for which the “hERG current change (%, negative = inhibition) at 1uM” value worked out at 17.3%.

Turning to `Cc1nn(CC(=O)NCc2cccs2)c(=O)c2nn(-c3ccccc3)c(C)c12`, the “hERG current change (%, negative = inhibition) at 1uM” value is reported as 12%.

In the case of `CCCCOc1ccc(-c2nnc(-c3ccco3)o2)cc1`, the “hERG current change (%, negative = inhibition) at 1uM” value is listed as 2.85%.

As for `CC(=O)OC1(c2ccccc2)CCN(C)C2CCCCC21.Cl` (stereo not shown), the “hERG current change (%, negative = inhibition) at 1uM” value is given as 2.93%.

Regarding `CC1C/C(=C/c2ccncc2)C(=O)/C(=C/c2ccncc2)C1` (stereo not shown), the “hERG current change (%, negative = inhibition) at 1uM” value was -10.4%.

Consider `CC(C)[C@H](Nc1nc(-c2ccccc2)nc2c1oc1ccccc12)C(=O)O.Cl`, for which the “hERG current change (%, negative = inhibition) at 1uM” value worked out at 14.5%.

For `COc1cc2c(=O)n(CC3CCCO3)c(=O)n(CC(=O)Nc3ccc(F)cc3F)c2cc1OC` (stereo not shown), the “hERG current change (%, negative = inhibition) at 1uM” value was determined as 12.7%.

In the case of `O=C(c1ccc(F)cc1)C(C(=O)N1CCCCC1)n1ccccc1=O` (stereo not shown), the “hERG current change (%, negative = inhibition) at 1uM” value came to 12.8%.

For the molecule `O=C(O)c1cccc(S(=O)(=O)NCCC(c2ccccc2)c2ccccc2)c1`, the “hERG current change (%, negative = inhibition) at 1uM” value was determined as 7.91%.

With `Clc1ccc(Cc2noc(Cc3ccccc3)n2)cc1Cl`, the “hERG current change (%, negative = inhibition) at 1uM” value was 13.8%.

Turning to `CCC1=NN2C(=N)/C(=C\c3cccn3-c3ccc(OC)cc3)C(=O)N=C2S1`, the “hERG current change (%, negative = inhibition) at 1uM” value was 8.05%.

For `O=C(CCNS(=O)(=O)c1cccs1)NCc1cccs1`, the “hERG current change (%, negative = inhibition) at 1uM” value was 22.6%.

Take `O=C(Nc1ccc(NC(=O)c2ccc([N+](=O)[O-])o2)cc1Cl)c1ccco1`: the “hERG current change (%, negative = inhibition) at 1uM” value is 14.3%.
